Source: the supplement of paper PMC3334620
The full ranking holds about 33,000 sequences; the median of “E-score (-0.5 to 0.5)” is about -0.013, and the highest 2% start at about 0.3. The list shows a part of the results.

molecular target: T1, Msn1 (UniProt P22148); assay: PBM E-score (8-mer binding enrichment) (E-score (-0.5 to 0.5)); higher = stronger / more preferred TF binding; most listed sequences are background and not binding sites; details: protein concentration: 200 nM; construct: GST-full length
T1 sequence: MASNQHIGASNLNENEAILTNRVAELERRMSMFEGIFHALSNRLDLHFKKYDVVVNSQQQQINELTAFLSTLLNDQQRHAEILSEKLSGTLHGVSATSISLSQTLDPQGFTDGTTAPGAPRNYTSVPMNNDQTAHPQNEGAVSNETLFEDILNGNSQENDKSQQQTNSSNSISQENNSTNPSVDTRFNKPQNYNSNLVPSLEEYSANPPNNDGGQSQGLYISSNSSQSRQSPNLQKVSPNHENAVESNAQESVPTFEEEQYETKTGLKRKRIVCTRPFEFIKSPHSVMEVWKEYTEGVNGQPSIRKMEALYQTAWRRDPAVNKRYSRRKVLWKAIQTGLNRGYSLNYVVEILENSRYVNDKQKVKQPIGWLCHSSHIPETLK
Experimental: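 Universal 'all 10-mer' protein binding microarrays (Agilent AMADID 015681) probed with GST-tagged S. cerevisiae TFs (full-length or DBD) made by in vitro transcription/translation (PURExpress), about 100-200 nM. Bound TF was detected with fluorescent anti-GST. Each ungapped 8-mer (which stands for itself and its reverse complement) is scored by the PBM enrichment score (E-score), a modified Wilcoxon-Mann-Whitney statistic from -0.5 to +0.5, computed with the Universal PBM Analysis Suite. Scale: above 0.35 generally sequence-specific binding.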

| Sequence | PBM E-score |
| --- | --- |
| AATTGCGG | 0.0799 |
| GCGACGCC | -0.162 |
| CGGGTGAC | -0.0128 |
| AACTTCCT | -0.0507 |
| CAGTAGAA | 0.0664 |
| CTATTCTA | 0.117 |
| AGAATATG | 0.0647 |
| GCCGTCAC | 0.00516 |
| GATCCAAC | -0.0488 |
| CGTTTACC | 0.13 |
| CTGAGCAG | -0.0675 |
| CTTACAAC | 0.0763 |
| AACGCCGC | -0.0972 |
| CCCTATAG | -0.174 |
| GTAGTAAC | -0.057 |
| TCAGTTAA | 0.0941 |
| ACTGCATG | 0.169 |
| CACACATC | 0.00833 |
| CAAGCAAA | 0.1 |
| CCATCTGA | 0.0309 |
| TTCAAAAA | -0.00355 |
| TAAGCTTA | 0.0947 |
| TGGAGACA | 0.27 |
| GTCGGACA | 0.427 |
| GCTTTAGA | -0.0753 |

| Sequence | PBM E-score |
| --- | --- |
| AGGATATA | 0.064 |
| CCAGTGTA | 0.139 |
| AATAGCCT | -0.0671 |
| ACAGCATG | -0.0851 |
| GGCGACCA | -0.247 |
| GGCTGTTA | 0.146 |
| GTAGAACA | -0.244 |
| GCTTTCTA | 0.047 |
| AACTAATT | 0.0711 |
| CGTCGTTA | 0.019 |
| CACACAAG | 0.0895 |
| CGGGACAC | 0.376 |
| CAATGTTA | 0.0181 |
| AAAACTGG | 0.03 |
| ACCTCGCC | -0.208 |
| TATACATA | 0.164 |
| CGAAGCAC | 0.0622 |
| ACAGCACT | 0.0423 |
| ACTTTTTC | 0.145 |
| CAGCCTCA | -0.211 |
| AAAATAGC | 0.0251 |
| AGTAACTG | -0.0668 |
| AGCAAACT | 0.122 |
| ACGGACAA | 0.474 |
| CGATCGCG | 0.162 |

| Sequence | PBM E-score |
| --- | --- |
| CGTGTTGC | -0.116 |
| CGGTTCTC | 0.0445 |
| CCGCTACG | -0.0932 |
| GAGGCACC | -0.257 |
| ACCTGTTG | -0.0438 |
| CAAGGGGC | -0.17 |
| TAATGACA | 0.307 |
| ACATCCGA | 0.171 |
| ACACAATG | 0.27 |
| AAGACGCG | -0.132 |
| CACTTATC | 0.108 |
| CTGGGCAA | 0.0233 |
| CAATTTAA | 0.106 |
| ACTGGTAG | -0.12 |
| ATATTCAC | 0.0923 |
| GGCGTACA | 0.0485 |
| ACGACTTC | 0.0847 |
| CCACGTCC | 0.046 |
| AAGAAGAC | -0.105 |
| GGACCGAC | 0.0571 |
| CACAGTGG | 0.0274 |
| CAGAATTC | 0.135 |
| CCCGATCA | -0.147 |
| AACCCACA | 0.0717 |
| AACATGGA | 0.159 |

| Sequence | PBM E-score |
| --- | --- |
| GACCTGGC | -0.141 |
| GGGATAGA | -0.152 |
| GATGTGCC | -0.00643 |
| CGGCCCTC | -0.139 |
| GGGATCAC | -0.286 |
| AGTAACGG | 0.0143 |
| CCGATAGC | -0.175 |
| AGGAGTAT | -0.312 |
| AGATAGCC | -0.187 |
| CCCGACGC | -0.00326 |
| ATCTTCTG | -0.134 |
| CGCAGACC | -0.123 |
| GCTAGCAC | -0.084 |
| TACCCATA | -0.0173 |
| CATCCATA | 0.0681 |
| GGGTGTGA | -0.134 |
| CCTCCGCA | -0.151 |
| ACAATCGG | 0.271 |
| GCATTGAC | -0.0839 |
| CACAGGAA | 0.0261 |
| AATCTCAA | -0.0619 |
| ACTTAGCA | -0.0833 |
| CCACCTCA | -0.174 |
| GGTGTTAC | -0.0745 |
| AACACGAC | 0.00642 |

| Sequence | PBM E-score |
| --- | --- |
| GAGCTTCC | -0.0316 |
| ATGCTGGA | -0.0259 |
| AGACAAAA | 0.437 |
| CACCGCAA | 0.039 |
| GCTCCTCC | -0.309 |
| GCACTCGC | -0.0631 |
| AAGTGACA | 0.212 |
| GCAGCGGA | 0.0601 |
| AAGTACCC | -0.0939 |
| CATATATC | 0.115 |
| ATCTGGCG | -0.113 |
| CCTGTTAG | 0.12 |
| ACTCGTAA | 0.0754 |
| CCAACAGC | -0.084 |
| GAGGCGGA | -0.3 |
| TGGTGACA | 0.19 |
| CCAGACAG | -0.094 |
| ATCGCGAT | 0.0975 |
| AGGTGTAA | 0.00173 |
| ATCTCTGG | 0.00384 |
| CGCTGGTC | -0.156 |
| GATCCTAC | 0.0164 |
| CAAAGTGC | 0.0233 |
| ACTCCCCT | -0.275 |
| CGCCACAA | -0.016 |

| Sequence | PBM E-score |
| --- | --- |
| CGTGATTC | -0.101 |
| ACGGGGGC | -0.218 |
| TCGCCACA | -0.15 |
| CATAGTAA | 0.146 |
| CCTTTGAA | -0.154 |
| GGGGCCGA | -0.394 |
| CTGTGGCA | -0.0645 |
| TAGATCCA | -0.0364 |
| AAGGTACT | 0.155 |
| ACTATCAC | 0.0583 |
| AACTCACG | 0.0813 |
| TAGTGAGA | -0.0792 |
| AGTGGTCG | -0.0675 |
| TAGTTCAA | -0.0528 |
| CCTATACG | -0.162 |
| GGAGTCCC | -0.227 |
| ATCTAACA | -0.162 |
| ATGGAGCG | -0.0801 |
| AAAAAATG | 0.287 |
| GTTATAGA | 0.0971 |
| CGGCGGTA | 0.136 |
| GGGAAGGA | -0.141 |
| CCAACGGC | -0.132 |
| GCGGCTGA | -0.191 |
| TCCGCAAA | 0.137 |

| Sequence | PBM E-score |
| --- | --- |
| CGGATTAG | -0.00838 |
| AAGATCTA | -0.185 |
| AACGTCCA | 0.154 |
| CCCTATAC | -0.129 |
| CCCGGTGC | -0.235 |
| ATCGGACA | 0.369 |
| ACCCCAAG | -0.113 |
| CGGAAGCA | 0.0289 |
| ATTGGCGG | 0.00685 |
| GACCTTAC | -0.148 |
| CGTGAATA | 0.034 |
| GAGTAAAA | 0.121 |
| ACTAAATG | 0.133 |
| GCGTGCAA | -0.206 |
| CAGGAAGC | 0.0602 |
| AGATGTCC | 0.477 |
| AGTGCCAC | -0.131 |
| AAAACCGG | 0.141 |
| AAGCTGGG | -0.145 |
| CTCCATAA | -0.129 |
| CTAAGACC | 0.0795 |
| AAGTGCCG | 0.221 |
